The full ranking holds about 81,000 sequences; the median of “one-hybrid fitness for binding parS DNA” is about -0.17, and the highest 2% start at about 0.51. The list shows a part of the results.
B1: Caulobacter ParB omega fusion; a variant is named by its letters at X, in order, B8GW30 (parent)
chain: MESVVVGEPGMSEGRRGLGRGLSALLGEVDAAPAQAPGEQLGGSREAPIEILQRNPDQPRRTFREEDLEDLSNSIREKGVLQPILVRPSPDTAGEYQIVAGERAWRAAQRAGLKTVPIMVRELDDLAVLEIGIIENVQRADLNVLEEALSYKVLMEKFERTQENIAQTIGKSXSHVANXMRLLXLPDEVQSYLVSGELTAXHARAIAAAADPVALAKQIIEGGLSVRETEALARKAPNLSAGKSKGGRPPRVKDTDTQALESDLSSVLGLDVSIDHRGSTGTLTITYATLEQLDDLCNRLTRGI

Variants of: B1
Assay: one-hybrid fitness for binding parS DNA (scaled: cognate 1, non-cognate 0); higher = stronger binding
Settings: with parS DNA site
Summary of the method: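 The reporter was HIS3, with the binding site 19 bp from the promoter, in E. coli USO used for bacterial one-hybrid selection of Caulobacter ParB libraries with four specificity codons randomised. Growth was on M9 lacking histidine, with 0.1 mM IPTG and 5 mM 3-AT, for 48 hours at 37°C. Illumina sequencing covered plasmids before and after selection; three replicate libraries were pooled and variants with under 10 reads dropped. A fitness score is the log change in variant-to-wild-type read ratio, rescaled to the cognate and non-cognate references.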

Variant	one-hybrid fitness for binding parS DNA
ADHS	≤ 0.2
RACD	≤ 0.2
HLRC	≤ 0.2
DATP	≤ 0.2
LERF	≤ 0.2
WGNG	≤ 0.2
RGTR	≤ 0.2
LMNY	≤ 0.2
TYKR	≤ 0.2
GKWG	≤ 0.2
HIGR	≤ 0.2
QWIS	≤ 0.2
TTAE	≤ 0.2
EVNE	≤ 0.2
GERR	≤ 0.2
SWAR	≤ 0.2
GPYR	≤ 0.2
RVMD	≤ 0.2
IVSC	≤ 0.2
HNRA	≤ 0.2
SFPV	≤ 0.2
QYWR	≤ 0.2
HSVF	≤ 0.2
PERA	≤ 0.2

Variant	one-hybrid fitness for binding parS DNA
LKRK	≤ 0.2
QLGK	≤ 0.2
QKIK	≤ 0.2
QDQC	≤ 0.2
DTKN	≤ 0.2
YKSR	≤ 0.2
VSYI	≤ 0.2
SLSK	≤ 0.2
PDME	≤ 0.2
KPHM	≤ 0.2
VALG	≤ 0.2
PRCF	≤ 0.2
WMPP	≤ 0.2
MPNM	≤ 0.2
MEKW	≤ 0.2
HSWP	≤ 0.2
RALR	≤ 0.2
YTIL	≤ 0.2
SLFE	≤ 0.2
YHAN	≤ 0.2
PTVI	≤ 0.2
DIRV	≤ 0.2
QIAH	≤ 0.2
HPEG	≤ 0.2

Variant	one-hybrid fitness for binding parS DNA
YPVL	≤ 0.2
PQMR	≤ 0.2
VMQC	≤ 0.2
WRKC	≤ 0.2
FSVC	≤ 0.2
QLNT	≤ 0.2
RMLW	0.295
TLWS	≤ 0.2
HLQL	≤ 0.2
REVW	≤ 0.2
NQWL	≤ 0.2
PRQC	≤ 0.2
LLWC	≤ 0.2
SGIR	≤ 0.2
GCTT	≤ 0.2
RMYQ	0.205
HRYC	0.25
HLPN	≤ 0.2
VQSM	≤ 0.2
RYAH	≤ 0.2
EINM	≤ 0.2
QMQM	≤ 0.2
TVSN	≤ 0.2
KTAL	≤ 0.2

Variant	one-hybrid fitness for binding parS DNA
MPQS	≤ 0.2
DRIF	≤ 0.2
RINQ	≤ 0.2
KAWC	≤ 0.2
CTKS	≤ 0.2
QMGK	≤ 0.2
SASW	≤ 0.2
VAPM	≤ 0.2
VASV	≤ 0.2
RFHL	≤ 0.2
LTIP	≤ 0.2
WQMC	≤ 0.2
GGVF	≤ 0.2
PAMN	≤ 0.2
CFAW	≤ 0.2
RHMW	≤ 0.2
TQDK	≤ 0.2
WFSV	≤ 0.2
RIMD	0.234
HNFA	≤ 0.2
RRKA	0.532
EGRC	≤ 0.2
FHMR	≤ 0.2
TGCY	≤ 0.2

Variant	one-hybrid fitness for binding parS DNA
SRVT	≤ 0.2
HRMW	≤ 0.2
NQCI	≤ 0.2
TSQV	≤ 0.2
HCWG	≤ 0.2
RALW	0.261
RYSP	≤ 0.2
GLTW	≤ 0.2
CPPH	≤ 0.2
RQCQ	≤ 0.2
LRIV	≤ 0.2
FKNT	≤ 0.2
LINL	≤ 0.2
RQCK	≤ 0.2
SYSS	≤ 0.2
CLPT	≤ 0.2
MNNR	≤ 0.2
SSPC	≤ 0.2
FLPA	≤ 0.2
TYIR	≤ 0.2
TLDD	≤ 0.2
AGSG	≤ 0.2
TLLK	≤ 0.2
SPFT	≤ 0.2

Variant	one-hybrid fitness for binding parS DNA
YQNT	≤ 0.2
FEKY	≤ 0.2
LNSD	≤ 0.2
IHPV	≤ 0.2
EKFS	≤ 0.2
VNHM	≤ 0.2
YYNG	≤ 0.2
RPNS	≤ 0.2
SAFV	≤ 0.2
FISG	≤ 0.2
ILPW	≤ 0.2
LEPK	≤ 0.2
PVAA	≤ 0.2
DLKK	≤ 0.2
PHFE	≤ 0.2
VLML	≤ 0.2
VPPG	≤ 0.2
GWHR	≤ 0.2
EQVF	≤ 0.2
CRAK	≤ 0.2
NGQP	≤ 0.2
CSIK	≤ 0.2
RYLK	≤ 0.2
STIG	≤ 0.2

Variant	one-hybrid fitness for binding parS DNA
YFKY	≤ 0.2
ARSY	≤ 0.2
PSIE	≤ 0.2
YHSS	≤ 0.2
IAVR	≤ 0.2
GAVV	≤ 0.2
DSPA	≤ 0.2
FAKM	≤ 0.2
QIRP	≤ 0.2
KTMH	≤ 0.2
VEKS	≤ 0.2
QEAC	≤ 0.2
MKYL	≤ 0.2
QEQD	≤ 0.2
WARQ	≤ 0.2
HDHG	≤ 0.2
QQGV	≤ 0.2
GRCV	≤ 0.2
VPPI	≤ 0.2
VLAV	≤ 0.2
QYHK	≤ 0.2
PWTV	≤ 0.2
DSGR	≤ 0.2
KHRC	≤ 0.2

Variant	one-hybrid fitness for binding parS DNA
SRTE	≤ 0.2
ECNL	≤ 0.2
DMEP	≤ 0.2
PWYR	≤ 0.2
IHHT	≤ 0.2
KELC	≤ 0.2
TPEF	≤ 0.2
RWMD	≤ 0.2
GPKR	≤ 0.2
RIDN	0.388
SFCM	≤ 0.2
IGLS	≤ 0.2
QKIN	≤ 0.2
FIAS	≤ 0.2
DSDR	≤ 0.2
DYYL	≤ 0.2
QMYY	≤ 0.2
TLMM	≤ 0.2
TWSY	≤ 0.2
TCQR	≤ 0.2
NQCR	≤ 0.2
CDET	≤ 0.2
ASPQ	≤ 0.2
NVSV	≤ 0.2

Variant	one-hybrid fitness for binding parS DNA
NQWS	≤ 0.2
QCHT	≤ 0.2
PMYE	≤ 0.2
LDQG	≤ 0.2
VKEL	≤ 0.2
QERT	≤ 0.2
QCLR	≤ 0.2
LFEC	≤ 0.2
PGLR	≤ 0.2
YHYM	≤ 0.2
AESR	≤ 0.2
RTSE	≤ 0.2
MSKE	≤ 0.2
PSSV	≤ 0.2
RLGQ	≤ 0.2
TRAQ	≤ 0.2
PQEN	≤ 0.2
DAHC	≤ 0.2
NMRM	≤ 0.2
CDRN	≤ 0.2
LSRA	≤ 0.2
ENSA	≤ 0.2
SHCE	≤ 0.2
DGAG	≤ 0.2

Variant	one-hybrid fitness for binding parS DNA
RELY	≤ 0.2
RHLW	0.201
DNTC	≤ 0.2
IACR	≤ 0.2
SPRK	≤ 0.2
HPPY	≤ 0.2
IPSH	≤ 0.2
YSDG	≤ 0.2
TMHE	≤ 0.2
STVQ	≤ 0.2
QKHW	≤ 0.2
QDRS	≤ 0.2
GQVC	≤ 0.2
CSNC	≤ 0.2
PWVP	≤ 0.2
DMDR	≤ 0.2
IYDC	≤ 0.2
PALM	≤ 0.2
GNQD	≤ 0.2
CWCR	≤ 0.2
RHRQ	≤ 0.2
IYWR	≤ 0.2
RYYI	≤ 0.2
MLRS	≤ 0.2

Variant	one-hybrid fitness for binding parS DNA
NGRK	0.211
AIPN	≤ 0.2
YSMA	≤ 0.2
DVTG	≤ 0.2
YGTY	≤ 0.2
QTTM	≤ 0.2
GCSR	≤ 0.2
TYEG	≤ 0.2
MDST	≤ 0.2
CPRN	≤ 0.2
PSDT	≤ 0.2
GSWT	≤ 0.2
AYEM	≤ 0.2
SEHR	≤ 0.2
MTTE	≤ 0.2
GSCS	≤ 0.2
RSDR	≤ 0.2
TEWG	≤ 0.2
NTPA	≤ 0.2
KQGL	≤ 0.2
RYPF	≤ 0.2
SSIS	≤ 0.2
STCH	≤ 0.2
PRRE	≤ 0.2

Variant	one-hybrid fitness for binding parS DNA
HRIT	≤ 0.2
IYCF	≤ 0.2
VTWR	≤ 0.2
RTVP	≤ 0.2
NLGW	≤ 0.2
VCTR	≤ 0.2
PYAQ	≤ 0.2
FSAC	≤ 0.2
RTQW	0.237
MNAN	≤ 0.2
FKQW	≤ 0.2
LCKV	≤ 0.2
LWKS	0.256
SARW	≤ 0.2
KYIT	≤ 0.2
CYVR	≤ 0.2
IRRV	≤ 0.2
AKCS	≤ 0.2
DSIG	≤ 0.2
ILYG	≤ 0.2
GETD	≤ 0.2
PNIT	≤ 0.2
CAFA	≤ 0.2
PQNR	≤ 0.2

Variant	one-hybrid fitness for binding parS DNA
WLTG	≤ 0.2
LGWR	≤ 0.2
QSQA	≤ 0.2
RRYT	0.604
KDNC	≤ 0.2
RKMP	≤ 0.2
HEWC	≤ 0.2
FYVT	≤ 0.2
QTVH	≤ 0.2
SSCR	≤ 0.2
VQMR	≤ 0.2
PRGC	≤ 0.2
YSRS	≤ 0.2
VEKG	≤ 0.2
HWNR	≤ 0.2
EYVV	≤ 0.2
AKRE	≤ 0.2
TVVW	≤ 0.2
